# The list shows a part of the results. Single values of this set are uncertain. Values with irradiation are relative to irradiated vehicle.
# Experiments:
# A549-Dual [1] = assay: NF-kB reporter (SEAP) activity, viability-corrected, relative to vehicle (fold change vs vehicle); higher = more activation of STING-IRF / NF-kB immune response reporter; conditions: 10 µM
# A549-Dual [2] = assay: ISRE reporter (Lucia luciferase) activity, viability-corrected, relative to vehicle (fold change vs vehicle); higher = more activation of STING-IRF / NF-kB immune response reporter; conditions: 10 µM
# 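For NF-kB reporter (SEAP) activity, viability-corrected, relative to vehicle in this document: viability correction based on the alamar blue assay, with concentrations leaving 10% survival or less dropped.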
SMILES,NF-kB reporter (A549-Dual [1]; irradiation: 8 Gy/4 fr),NF-kB reporter (A549-Dual [1]; irradiation: none),ISRE reporter (A549-Dual [2]; irradiation: 8 Gy/4 fr),ISRE reporter (A549-Dual [2]; irradiation: none)
COc1ccc2c(c1)[nH]c1c(C)nccc12.Cl [Harmine hydrochloride],2.03,4.23,0.468,2.3
CC[N+](CC)(CC)CC.[Br-] [Tetraethylammonium bromide],0.96,0.869,0.864,0.614
CCC1(c2c[nH]cn2)Cc2ccccc2C1.Cl [Atipamezole hydrochloride],1.16,1.76,0.695,0.819
O=P([O-])(O)C(Cl)(Cl)P(=O)([O-])O.[Na+].[Na+] [Clodronate Disodium],0.775,0.881,0.885,0.82
CNCC(O)c1ccc(O)cc1.Cl (configuration not stated) [Synephrine HCl],0.702,0.924,0.724,0.992
Br.COc1ccc2c(c1)C13CCCCC1C(C2)N(C)CC3.O (configuration not stated) [Dextromethorphan hydrobromide hydrate],0.743,1.14,0.763,0.663
CCOC1OC2OC3(C)CCC4C(C)CCC(C1C)C24OO3 (configuration not stated) [Arteether],0.881,1.18,1.2,3.07
CNCC(O)c1ccc(O)cc1 (configuration not stated) [Synephrine],0.922,0.796,1.05,0.928
O=C/C=C/c1ccccc1 [Cinnamaldehyde],1.31,1.82,0.0991,0.327
CCOC(=O)c1cncn1C(C)c1ccccc1 (configuration not stated) [Etomidate],0.658,0.818,0.717,0.803
COc1ccc(C(=O)N2CCCC2=O)cc1 [Aniracetam],0.699,0.822,0.78,0.76
CN1C(=O)CCS(=O)(=O)C1c1ccc(Cl)cc1 (configuration not stated) [Chlormezanone],0.614,1.08,0.822,0.954
CCC1=CC2C(C1)CC2(CN)CC(=O)O (configuration not stated) [Mirogabalin (DS-5565)],0.841,1.21,0.692,0.627
Cl.NCCc1c[nH]c2ccc(O)cc12 [Serotonin HCl],0.894,1.21,0.871,0.886
CC1C(=O)OC2C(O)C34C5OC(=O)C3(OC3OC(=O)C(O)C34C(C(C)(C)C)C5O)C12O (configuration not stated) [Ginkgolide C],1.49,0.882,1.11,0.668
CCC1(c2ccc(N)cc2)CCC(=O)NC1=O (configuration not stated) [Aminoglutethimide],0.881,0.853,0.95,0.843
COc1ccc(C(CN(C)C)C2(O)CCCCC2)cc1.Cl (configuration not stated) [Venlafaxine HCl],0.905,0.953,0.827,0.781
CN1C2CCC1CC(OC(=O)C(CO)c1ccccc1)C2 (configuration not stated) [Hyoscyamine],0.951,1.11,1.02,0.951
C#CC1(O)C=CC2C3CCC4=CC(=O)CCC4C3CCC21CC (configuration not stated) [Gestodene],0.57,0.931,0.332,0.534
Cl.NC1CC1c1ccccc1 (configuration not stated) [Tranylcypromine (2-PCPA) HCl],0.871,1.22,0.698,0.687
Oc1cccc2cccnc12 [8-Hydroxyquinoline],0.881,0.982,0.967,0.769
CCNCC.O=S(=O)(O)c1cc(O)ccc1O [Ethamsylate],0.937,0.868,0.811,0.461

SMILES,NF-kB reporter (A549-Dual [1]; irradiation: 8 Gy/4 fr),NF-kB reporter (A549-Dual [1]; irradiation: none),ISRE reporter (A549-Dual [2]; irradiation: 8 Gy/4 fr),ISRE reporter (A549-Dual [2]; irradiation: none)
Nc1ccncc1 [4-Aminopyridine],0.821,0.975,0.805,0.755
CC(=O)OC1CCC2C3CCC4=CC(=O)CCC4=C3C=CC12C (configuration not stated) [Trenbolone acetate],0.469,0.576,0.484,0.451
CC12CCC3C(CCC4CC(O)CCC43C)C1CCC2=O (configuration not stated) [Epiandrosterone],0.985,0.818,0.835,0.617
CCC(=O)OC1CCC2C3CCC4CC(=O)C(C)CC4(C)C3CCC12C (configuration not stated) [Drostanolone Propionate],0.864,0.627,0.625,0.42
C=CC(=C)C [Isoprene],0.902,0.9,0.989,0.709
O=C(OC1C[N+]2(CCCOc3ccccc3)CCC1CC2)C(O)(c1cccs1)c1cccs1.[Br-] (configuration not stated) [Aclidinium Bromide],0.538,0.907,0.603,0.828
CN(CC(=O)O)C(=N)NP(=O)([O-])[O-].[Na+].[Na+] [Creatine phosphate disodium salt],1.06,0.853,1.04,0.818
CN1CCC(C(=O)c2cccc(NC(=O)c3c(F)cc(F)cc3F)n2)CC1.CN1CCC(C(=O)c2cccc(NC(=O)c3c(F)cc(F)cc3F)n2)CC1.O=C(O)CCC(=O)O [Lasmiditan succinate],0.559,0.773,0.565,0.612
CC12C=CC(=O)C=C1CCC1C2CCC2(C)C1CCC2(C)O (configuration not stated) [Methandrostenolone],0.681,0.616,0.713,0.56
CCN(CC)CCOC(=O)C(O)(c1ccccc1)c1ccccc1.Cl [Benactyzine hydrochloride],0.537,0.75,0.476,0.48
Cc1cc(O)ccc1Cl [Chlorocresol],0.802,0.603,0.69,0.563
CN1CC(C(=O)NC2(C)OC3(O)C4CCCN4C(=O)C(Cc4ccccc4)N3C2=O)CC2c3cccc4[nH]cc(c34)CC21.CS(=O)(=O)O (configuration not stated) [Dihydroergotamine Mesylate],1.31,0.806,1.43,0.877
CN1C2CCC1CC(OC(=O)C1C=Nc3ccccc31)C2.Cl (configuration not stated) [Tropisetron HCl],1.06,0.808,1.09,0.788
CC1OC(OC2CC(O)C3(CO)C4C(O)CC5(C)C(C6=CC(=O)OC6)CCC5(O)C4CCC3(O)C2)C(O)C(O)C1O.O.O.O.O.O.O.O.O (configuration not stated) [Ouabain],1.79,1.81,0.0974,0.207
O=Cc1ccco1 [Furfural],1.11,0.645,0.875,0.522
NC(=O)CN1CC(c2ccccc2)CC1=O (configuration not stated) [Phenylpiracetam],0.708,0.787,0.691,0.785
CNC.Cl [Dimethylamine hydrochloride],0.976,0.669,0.908,0.495
CC(C)(O)C(Cl)(Cl)Cl [Chlorobutanol],0.714,1.12,0.751,0.919
CC1(C)C(C=C(Cl)Cl)C1C(=O)OCc1cccc(Oc2ccccc2)c1 (configuration not stated) [Permethrin],0.764,0.844,0.698,0.728
CC(=O)OC1CC2CCC3C(CCC4(C)C3CC([N+]3(C)CCCCC3)C4OC(C)=O)C2(C)CC1[N+]1(C)CCCCC1.[Br-].[Br-] (configuration not stated) [Pancuronium dibromide],0.847,1.25,0.692,0.659
CCOC(=O)Nc1ccc(NCc2ccc(F)cc2)cc1N [Retigabine],0.452,0.951,0.459,0.617

# From the supplement of paper PMC9174493
